According to PubChem BioAssay (NCI):
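All cell lines were grown in 96-well plates and treated with compound for 48 hours. GI50 = concentration required for 50% inhibition of growth. TGI: total growth inhibition.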

System: NCI-H322M lung
Assay: inhibition of tumour cell growth, NCI panel, 48 h

`O=c1ccc(Cn2c(C(F)(F)F)cc3c(Cl)ncnc32)c[nH]1` was tested, and the GI50 was 14.1 µM and the TGI was 39.7 µM.
